From publication PMC6919601, “Identification of Plasmodium dipeptidyl aminopeptidase allosteric inhibitors by high throughput screening” (PLoS ONE, 2019)
The whole screen tested about 110,000 compounds, of which about 230 (0.21%) showed an effect of 50% or more. The list shows a part of the results.

Each molecule was assayed against DPAP1 (Plasmodium falciparum, UniProt Q8IIJ9) (assay: primary screen, percent inhibition; read by cleavage of a fluorogenic dipeptide substrate; higher = more effect of the substance).
Sequence of DPAP1 (Q8IIJ9 whole entry, looked up): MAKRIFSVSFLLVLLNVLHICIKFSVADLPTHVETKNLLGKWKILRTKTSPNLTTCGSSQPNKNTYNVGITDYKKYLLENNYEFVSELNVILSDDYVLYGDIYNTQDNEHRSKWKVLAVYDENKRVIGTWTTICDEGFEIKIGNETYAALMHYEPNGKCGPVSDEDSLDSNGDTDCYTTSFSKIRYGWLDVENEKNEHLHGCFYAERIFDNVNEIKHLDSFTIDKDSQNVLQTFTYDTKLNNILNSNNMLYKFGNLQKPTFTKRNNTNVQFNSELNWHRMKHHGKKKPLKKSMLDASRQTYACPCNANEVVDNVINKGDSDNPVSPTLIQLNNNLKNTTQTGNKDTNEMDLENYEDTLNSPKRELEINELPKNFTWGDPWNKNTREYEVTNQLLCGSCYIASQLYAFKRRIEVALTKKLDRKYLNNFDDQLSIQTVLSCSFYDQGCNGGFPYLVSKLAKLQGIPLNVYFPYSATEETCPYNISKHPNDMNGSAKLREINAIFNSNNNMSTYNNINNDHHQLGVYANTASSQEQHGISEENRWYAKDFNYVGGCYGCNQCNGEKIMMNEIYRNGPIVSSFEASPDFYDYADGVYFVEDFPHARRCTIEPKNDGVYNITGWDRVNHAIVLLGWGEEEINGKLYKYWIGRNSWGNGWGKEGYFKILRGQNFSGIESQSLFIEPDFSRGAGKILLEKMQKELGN
Design: species or system P. falciparum D10 trophozoite lysates; single well
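Note: 30 min substrate incubation versus DMSO and 10 µM JCP410 controls.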

SMILES	% Inhibition @ 10 uM
COc1ccc(C2C(C#N)=C(SCC(=O)NCc3ccccc3)N=C3CC(C)(C)CC(O)=C32)cc1 (centres unmarked)	2.46%
Cc1[nH]c(-c2ccc(F)cc2)cc1C(=O)NC1CCCc2ccccc21 (centres unmarked)	3.64%
Cc1[nH]nc(O)c1C(c1cccs1)c1c(O)n[nH]c1C	-1.63%
COc1ccc(C2CC(=O)NC(SC)=C2C#N)cc1OCc1ccccc1 (centres unmarked)	21.6%
CCCC1CCC(C2=N/C(=C\c3ccc(OC)c(OC)c3)C(=O)O2)CC1 (centres unmarked)	5.57%
Cc1ccc(CNc2ncc(-c3ccccc3)n2C)o1	3.93%
Cc1cc(/C=C2/NC(=O)NC2=O)c(C)n1-c1ccc(OCc2ccccc2Cl)cc1	-1.25%
N#CC1=C(SCc2ccccc2)NC(=O)CC1c1cccc(O)c1 (centres unmarked)	4.52%
c1ccc(Nc2ncnc3sc4c(c23)CCCC4)cc1	4.65%
COc1ccc(C2OCC(C)(C(=O)O)CO2)cc1 (centres unmarked)	1.39%
Cc1cc(C)c2c(c1)C(=O)c1ccccc1-2	-0.736%
Cc1cc(OCC(O)CN2CCN(CCO)CC2)cc(C)c1Cl (centres unmarked)	-2.37%
O=C(c1cc([N+](=O)[O-])ccc1Cl)N1CCN(Cc2ccccc2)CC1	-0.233%
COc1ccc(OC)c(CCNc2ccc3nnc(-c4ccccc4)n3n2)c1	-4.85%
O=C(NCc1ccccc1)C(=O)c1c(O)[nH]c2ccccc12	8.73%
CC(C)(C)OC(=O)N1CCN(C(=O)OC(C)(C)C)CC1	-0.312%
Cc1cccc(C)c1OCC(=O)N(Cc1ccccc1)C1CCS(=O)(=O)C1 (centres unmarked)	-2.98%
CC1CN(C(=O)CCc2ccccc2)C(C)CN1C(=O)CCc1ccccc1 (centres unmarked)	-2.9%
CN1CCN(C2=NC(=O)/C(=C\c3cccc4c3OCO4)S2)CC1	5.2%
COc1ccc2c(c1OC)C(=O)N(c1ccc(C)c(C)c1)C2=O	-3.41%
COc1ccc(OC)c(C2CC(=O)C3=C(C2)NC(=O)CC3c2ccc(C(F)(F)F)cc2)c1 (centres unmarked)	-2.24%
CCOc1ccc(C(=O)c2oc3ccccc3c2NC(=O)c2cc(=O)c3ccccc3o2)cc1	-3.24%

SMILES	% Inhibition @ 10 uM
Clc1cccc(N2CCN(Cc3ccc(Br)o3)CC2)c1	1.34%
CN(C)CCCN(C(=O)CCc1ccccc1)c1nc2c(F)cccc2s1	3.96%
CCOC(=O)c1nnn(-c2nonc2N)c1CSc1ccc(C)cc1	-0.0735%
Cc1ccsc1C1C(C#N)=C(N)Oc2c1c(=O)oc1ccccc21 (centres unmarked)	4.26%
Cc1ccc2nc3c(c(N)c2c1)CCCCN3C	0.266%
CCN(CC)CCCNC(=O)C1CCN(Cc2nc(-c3ccc(Cl)cc3)oc2C)CC1	-1.05%
CCn1ncc(C2=NOC(C(=O)Nc3cnn(C45CC6CC(CC(C6)C4)C5)c3)C2)c1C (centres unmarked)	0.291%
COc1ccc(-c2[nH]nc3c2C(c2ccoc2)C(C#N)=C(N)O3)cc1 (centres unmarked)	4.09%
N#CC1C(=O)NC(=O)C([n+]2ccccc2)C1c1ccc(Cl)cc1 (centres unmarked)	2.51%
CCc1ccc(-c2[nH]nc3nc(-c4ccc(C(=O)OC)cc4)cc(C(=O)O)c23)cc1	-0.901%
Cc1nn(Cc2ccccc2)c(=O)[nH]c1=O	-1.85%
CC(=O)C(C(C)=O)C1=CC(=O)C(=O)c2ccccc21	21.8%
CC1(C)CC(CC(N)=O)(c2ccccc2)CCO1 (centres unmarked)	3.76%
COc1ccc(-c2ccc(C#N)c(O)n2)cc1	12.8%
O=C(NCc1ccccc1)C(=O)NCc1ccc(Cl)cc1	1.29%
Cc1ccc(NC(=O)c2ccccc2F)cc1C	-2.03%
COc1ccccc1N1CCN(Cc2c(C)n(C)n(-c3ccccc3)c2=O)CC1	3.35%
COc1ccc(/C=c2\sc3nc(=O)c(C)nn3c2=O)cc1	0.222%
CC(Oc1ccccc1)C(=O)Nc1cc(Cl)ccc1O (centres unmarked)	2.22%
O=C(Cn1c(-c2cncs2)nc2ccccc21)NCc1ccc(F)cc1	-2.05%
Cn1cc(CCC(=O)N2CCC(C(N)=O)CC2)c2ccccc21	3.36%
CC1=C(C(=O)OCC2CCCO2)C(c2ccccc2Cl)NC(=O)N1 (centres unmarked)	3.61%

SMILES	% Inhibition @ 10 uM
CCOCCCNC(=O)Nc1cnc2cc(OC)ccc2c1O	0.635%
N#CC1=C(N)OC2=C(CN(Cc3ccccc3)C/C2=C\c2cccnc2)C1c1cccnc1 (centres unmarked)	0.628%
C(=C\c1ccc2ccccc2n1)/c1cccnc1	19.6%
C=CCNS(=O)(=O)c1c(C)cc(Cl)nc1Cl	2.18%
CCOc1ccc(N2Cc3ccc(OC)c(OC)c3C2=O)cc1	2.16%
O=C(Nc1cccc2ccccc12)NC(CC(=O)c1ccc(Cl)cc1Cl)C(Cl)(Cl)Cl (centres unmarked)	-1.46%
CC/N=C1\S/C(=C\c2ccc(-c3cccc(C(=O)O)c3)o2)C(=O)N1CC	0.611%
Cc1cc(Cl)ccc1NC(=O)CN(C)S(=O)(=O)c1cc(Cl)ccc1Cl	5.29%
Cn1c(-c2cccc(Br)c2)nc2ccccc21	-0.551%
Cc1ccc(OCC(=O)Nc2ccc(Br)cc2)cc1	-3.45%
C=C(C)C1CCC(C)OC1c1ccc2c(c1)OCO2 (centres unmarked)	3.05%
Cc1[nH]c2ccccc2c1C=C1C(=O)NC(=O)NC1=O	-0.85%
CC1CCCC(N2CCN(CCO)CC2)C1 (centres unmarked)	-0.0953%
CCOC(=O)C1CCN(Cc2ccc(OC)c(Br)c2)CC1	-5.68%
Cc1ccc2c(c1)-c1c(cnn1CC(=O)NCCCN(Cc1ccco1)C1CCCC1)CO2	2.73%
CC1CCC(C(=O)NC(Cc2c[nH]c3ccccc23)C(=O)NCCCN2CC(C)CC(C)C2)CC1 (centres unmarked)	-0.228%
COc1ccc(/C=C/C(=O)NC(=S)Nc2cc([N+](=O)[O-])cc(Cl)c2O)cc1OC	3.47%
O=C(c1cc(S(=O)(=O)N2CCOCC2)ccc1Cl)N1CCOCC1	8.06%
N#CCNC(=O)[C@@H](Cc1ccc(I)cc1)NC(=O)OCc1ccccc1	-6.56%
CCCCc1c(O)c2cccc3c2n(c1=O)CCC3	7.33%
COc1ccc(CNC(=O)c2cc3c(C)nccc3nc2O)cc1	4.47%
